# The other results are listed elsewhere or left out.
# B1: Cohesin-marm-DC-ASGPR (protein)
# chain: LDITSHHHHHHDDLDAVRIKVDTVNAKPGDTVRIPVRFSGIPSKGIANCDFVYSYDPNVLEIIEIEPGDIIVDPNPDKSFDTAVYPDRKIIVFLFAEDSGTGAYAITKDGVFATIVAKVKEGAPNGLSVIKFVEVGGFANNDLVEQKTQFFDGGVNVGDTTEPATPTTPVTTPTTTDDLDAASSKFQRDLVTLRTDFSNFTSNTLAEIQALTSQGSSLQETIASLKAEVEGHKQELQAGASELQEHNKQKAHLGRCPHTCVCPSSFVCVPVHSEILLRVQQLVQDLNKLSCQVAILKNNATTERTCCPINWVEHQGSCYWFSRSGKTWPEAERYCQLENTHLVVINSREEQNFVQAHLGSAYTWMGLSDPEGVWKWVDGTDYSSGFQNWKPGQPDDWQGHGLGGGEDCAHFHPDGRWNDDVCQRSYHWVCEAGLTQASQDSHAS
# Experiments:
# Assay in all cases: glycan array binding signal (z-score within array); higher = stronger binding
# Conditions in all cases: glycan notation: IUPAC condensed, linker removed
# [1] = biological target: Neu5Ac(a2-6)Gal(b1-4)GlcNAc(b1-3)Gal(b1-4)GlcNAc(b1-3)GalNAc
# In short: (§1)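 Columns mapping to the same glycan were averaged after glycan names were converted to IUPAC-condensed notation. The data come from 3228 arrays in the Consortium for Functional Glycomics database, limited to those with an available protein sequence. Binding is reported as a within-array Z-score averaged across arrays of one protein sequence and across linkers.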
# [2] = biological target: Neu5Ac(a2-6)Gal(b1-4)GlcNAc(b1-3)Gal(b1-4)GlcNAc(b1-3)[Neu5Ac(a2-6)Gal(b1-4)GlcNAc(b1-3)Gal(b1-4)GlcNAc(b1-6)]GalNAc
# In short: as §1
# [3] = biological target: Neu5Ac(a2-6)Gal(b1-4)GlcNAc(b1-3)Gal(b1-4)GlcNAc(b1-6)[Gal(b1-3)]GalNAc
# In short: as §1
# [4] = biological target: Neu5Ac(a2-6)Gal(b1-4)GlcNAc(b1-3)Gal(b1-4)[Fuc(a1-3)]GlcNAc(b1-3)Gal(b1-4)[Fuc(a1-3)]GlcNAc
# In short: as §1
# [5] = biological target: Neu5Ac(a2-6)Gal(b1-4)GlcNAc(b1-3)GalNAc
# In short: as §1
# [6] = biological target: Neu5Ac(a2-6)Gal(b1-4)GlcNAc(b1-3)[Neu5Ac(a2-6)Gal(b1-4)GlcNAc(b1-6)]GalNAc
# In short: as §1
# [7] = biological target: Neu5Ac(a2-6)Gal(b1-4)GlcNAc(b1-6)GalNAc
# In short: as §1
# [8] = biological target: Neu5Ac(a2-6)Gal(b1-4)GlcNAc(b1-6)[Gal(b1-3)GlcNAc(b1-3)]Gal(b1-4)Glc
# In short: as §1
# [9] = biological target: Neu5Ac(a2-6)Gal(b1-4)GlcNAc(b1-6)[Gal(b1-3)]GalNAc
# In short: as §1
# [10] = biological target: Neu5Ac(a2-6)Gal(b1-4)GlcNAc6S
# In short: as §1
# Neu5Ac(a2-6)GalNAc = biological target: Neu5Ac(a2-6)GalNAc
# In short: as §1
# [11] = biological target: Neu5Ac(a2-6)GalNAc(b1-4)GlcNAc
# In short: as §1
# [12] = biological target: Neu5Ac(a2-6)GalNAc(b1-4)GlcNAc6S
# In short: as §1
# [13] = biological target: Neu5Ac(a2-6)GlcNAc(b1-4)GlcNAc
# In short: as §1
# [14] = biological target: Neu5Ac(a2-6)GlcNAc(b1-4)GlcNAc(b1-4)GlcNAc
# In short: as §1
# Neu5Ac(a2-8)Neu5Ac = biological target: Neu5Ac(a2-8)Neu5Ac
# In short: as §1
# [15] = biological target: Neu5Ac(a2-8)Neu5Ac(a2-3)Gal(b1-3)GalNAc(b1-4)[Neu5Ac(a2-3)]Gal(b1-4)Glc
# In short: as §1
# [16] = biological target: Neu5Ac(a2-8)Neu5Ac(a2-3)Gal(b1-3)GalNAc(b1-4)[Neu5Ac(a2-8)Neu5Ac(a2-3)]Gal(b1-4)Glc
# In short: as §1
# [17] = biological target: Neu5Ac(a2-8)Neu5Ac(a2-3)Gal(b1-4)Glc
# In short: as §1
# [18] = biological target: Neu5Ac(a2-8)Neu5Ac(a2-3)Gal(b1-4)GlcNAc
# In short: as §1
# [19] = biological target: Neu5Ac(a2-8)Neu5Ac(a2-3)[Gal(b1-3)GalNAc(b1-4)]Gal(b1-4)Glc
# In short: as §1
# [20] = biological target: Neu5Ac(a2-8)Neu5Ac(a2-3)[GalNAc(b1-4)]Gal(b1-4)Glc
# In short: as §1
# [21] = biological target: Neu5Ac(a2-8)Neu5Ac(a2-8)Neu5Ac
# In short: as §1
# [22] = biological target: Neu5Ac(a2-8)Neu5Ac(a2-8)Neu5Ac(a2-3)Gal(b1-4)Glc
# In short: as §1
# [23] = biological target: Neu5Ac(a2-8)Neu5Ac(a2-8)Neu5Ac(a2-3)[Gal(b1-3)GalNAc(b1-4)]Gal(b1-4)Glc
# In short: as §1
# [24] = biological target: Neu5Ac(a2-8)Neu5Ac(a2-8)Neu5Ac(a2-3)[GalNAc(b1-4)]Gal(b1-4)Glc
# In short: as §1
# [25] = biological target: Neu5Ac(a2-8)Neu5Ac(a2-8)Neu5Ac(a2-8)Neu5Ac(a2-3)[GalNAc(b1-4)]Gal(b1-4)Glc
# In short: as §1
# [26] = biological target: Neu5Ac(a2-8)Neu5Gc(a2-3)Gal(b1-4)GlcNAc
# In short: as §1
# [27] = biological target: Neu5Ac(b2-6)Gal(b1-4)GlcNAc
# In short: as §1
# Neu5Ac(b2-6)GalNAc = biological target: Neu5Ac(b2-6)GalNAc
# In short: as §1
# [28] = biological target: Neu5Ac9Ac(a2-3)Gal(b1-3)GlcNAc
# In short: as §1
# [29] = biological target: Neu5Ac9Ac(a2-3)Gal(b1-4)GlcNAc
# In short: as §1
# [30] = biological target: Neu5Ac9Ac(a2-6)Gal(b1-4)GlcNAc
# In short: as §1
# [31] = biological target: Neu5Gc(a2-3)Gal(b1-3)GlcNAc
# In short: as §1
# [32] = biological target: Neu5Gc(a2-3)Gal(b1-3)[Fuc(a1-4)]GlcNAc
# In short: as §1
# Neu5Gc(a2-3)Gal(b1-4)Glc = biological target: Neu5Gc(a2-3)Gal(b1-4)Glc
# In short: as §1
# [33] = biological target: Neu5Gc(a2-3)Gal(b1-4)GlcNAc
# In short: as §1
# [34] = biological target: Neu5Gc(a2-3)Gal(b1-4)GlcNAc(b1-3)Gal(b1-4)GlcNAc(b1-2)Man(a1-3)[Neu5Gc(a2-3)Gal(b1-4)GlcNAc(b1-3)Gal(b1-4)GlcNAc(b1-2)Man(a1-6)]Man(b1-4)GlcNAc(b1-4)GlcNAc
# In short: as §1
# [35] = biological target: Neu5Gc(a2-3)Gal(b1-4)[Fuc(a1-3)]GlcNAc
# In short: as §1
# [36] = biological target: Neu5Gc(a2-6)Gal(b1-4)GlcNAc
# In short: as §1
# Neu5Gc(a2-6)GalNAc = biological target: Neu5Gc(a2-6)GalNAc
# In short: as §1
# [37] = biological target: Neu5Gc(a2-8)Neu5Ac(a2-3)Gal(b1-4)GlcNAc
# In short: as §1
# [38] = biological target: Neu5Gc(a2-8)Neu5Gc(a2-3)Gal(b1-4)GlcNAc
# In short: as §1
# [39] = biological target: Neu5Gc(a2-8)Neu5Gc(a2-3)Gal(b1-4)GlcNAc(b1-3)Gal(b1-4)GlcNAc
# In short: as §1
# [40] = biological target: Neu5Gc(a2-8)Neu5Gc(a2-6)Gal(b1-4)GlcNAc
# In short: as §1
# [41] = biological target: Neu5Gc(b2-6)Gal(b1-4)GlcNAc
# In short: as §1
binder,measurement,setting,value
B1,glycan array binding signal (z-score),[1],-0.284
same,glycan array binding signal (z-score),[2],-0.295
same,glycan array binding signal (z-score),[3],-0.308
same,glycan array binding signal (z-score),[4],-0.307
same,glycan array binding signal (z-score),[5],-0.225
same,glycan array binding signal (z-score),[6],-0.309
same,glycan array binding signal (z-score),[7],-0.295
same,glycan array binding signal (z-score),[8],-0.222
same,glycan array binding signal (z-score),[9],-0.306
same,glycan array binding signal (z-score),[10],-0.297
same,glycan array binding signal (z-score),Neu5Ac(a2-6)GalNAc,0.569
same,glycan array binding signal (z-score),[11],0.541
same,glycan array binding signal (z-score),[12],-0.057
same,glycan array binding signal (z-score),[13],-0.313
same,glycan array binding signal (z-score),[14],-0.312
same,glycan array binding signal (z-score),Neu5Ac(a2-8)Neu5Ac,-0.306
same,glycan array binding signal (z-score),[15],-0.301
same,glycan array binding signal (z-score),[16],-0.296
same,glycan array binding signal (z-score),[17],-0.303
same,glycan array binding signal (z-score),[18],-0.238
same,glycan array binding signal (z-score),[19],-0.05
same,glycan array binding signal (z-score),[20],3.43
same,glycan array binding signal (z-score),[21],-0.309
same,glycan array binding signal (z-score),[22],-0.311
same,glycan array binding signal (z-score),[23],-0.305
same,glycan array binding signal (z-score),[24],2.25
same,glycan array binding signal (z-score),[25],5.27
same,glycan array binding signal (z-score),[26],-0.302
same,glycan array binding signal (z-score),[27],-0.312
same,glycan array binding signal (z-score),Neu5Ac(b2-6)GalNAc,-0.276
same,glycan array binding signal (z-score),[28],0.049
same,glycan array binding signal (z-score),[29],-0.291
same,glycan array binding signal (z-score),[30],-0.219
same,glycan array binding signal (z-score),[31],-0.264
same,glycan array binding signal (z-score),[32],-0.277
same,glycan array binding signal (z-score),Neu5Gc(a2-3)Gal(b1-4)Glc,-0.276
same,glycan array binding signal (z-score),[33],-0.169
same,glycan array binding signal (z-score),[34],-0.276
same,glycan array binding signal (z-score),[35],-0.107
same,glycan array binding signal (z-score),[36],-0.285
same,glycan array binding signal (z-score),Neu5Gc(a2-6)GalNAc,2.81
same,glycan array binding signal (z-score),[37],-0.308
same,glycan array binding signal (z-score),[38],-0.287
same,glycan array binding signal (z-score),[39],-0.303
same,glycan array binding signal (z-score),[40],-0.31
same,glycan array binding signal (z-score),[41],-0.304

# Reference: the supplement of paper PMC8728848
